Assay results published in the GPR68 mutational scans of Howard et al. (2025).

B1: GPR68, Q15743 (parent)
chain: MGNITADNSSMSCTIDHTIHQTLAPVVYVTVLVVGFPANCLSLYFGYLQIKARNELGVYLCNLTVADLFYICSLPFWLQYVLQHDNWSHGDLSCQVCGILLYENIYISVGFLCCISVDRYLAVAHPFRFHQFRTLKAAVGVSVVIWAKELLTSIYFLMHEEVIEDENQHRVCFEHYPIQAWQRAINYYRFLVGFLFPICLLLASYQGILRAVRRSHGTQKSRKDQIQRLVLSTVVIFLACFLPYHVLLLVRSVWEASCDFAKGVFNAYHFSLLLTSFNCVADPVLYCFVSETTHRDLARLRGACLAFLTCSRTGRAREAYPLGAPEASGKSGAQGEEPELLTKLHPAFQTPNSPGSGGFPTGRLA

Experiments:
[1] = variants of: B1; assay: cAMP reporter score (Enrich2 score, wild type = 0); higher = more signal; HEK293T, FACS bins
[2] = variants of: B1; assay: surface expression score (Enrich2 score, wild type = 0); higher = more signal; HEK293T, FACS bins

Variant | cAMP reporter score ([1]; pH 5.5) | cAMP reporter score ([1]; pH 6) | cAMP reporter score ([1]; pH 6, modulator: ogerin) | cAMP reporter score ([1]; pH 6.5, modulator: ogerin) | surface expression score [2]
V139_G140insG | -1.49 | -1.33 | -1.26 | -1.18 | -2.77
V139_G140insGSG | -0.336 | -0.771 | -1.86 | -1.81 | -1.61
MGNITADNSSMSCTIDHTIHQTLAPVVYVTVLVVGFPANCLSLYFGYLQIKARNELGVYLCNLTVADLFYICSLPFWLQYVLQHDNWSHGDLSCQVCGILLYENIYISVGFLCCISVDRYLAVAHPFRFHQFRTLKAAVGCSVVIWAKELLTSIYFLMHEEVIEDENQHRVCFEHYPIQAWQRAINYYRFLVGFLFPICLLLASYQGILRAVRRSHGTQKSRKDQIQRLVLSTVVIFLACFLPYHVLLLVRSVWEASCDFAKGVFNAYHFSLLLTSFNCVADPVLYCFVSETTHRDLARLRGACLAFLTCSRTGRAREAYPLGAPEASGKSGAQGEEPELLTKLHPAFQTPNSPGSGGFPTGRLA [V141C] | 0.076 | -0.355 | -0.704 | -0.651 | -1.03
MGNITADNSSMSCTIDHTIHQTLAPVVYVTVLVVGFPANCLSLYFGYLQIKARNELGVYLCNLTVADLFYICSLPFWLQYVLQHDNWSHGDLSCQVCGILLYENIYISVGFLCCISVDRYLAVAHPFRFHQFRTLKAAVGFSVVIWAKELLTSIYFLMHEEVIEDENQHRVCFEHYPIQAWQRAINYYRFLVGFLFPICLLLASYQGILRAVRRSHGTQKSRKDQIQRLVLSTVVIFLACFLPYHVLLLVRSVWEASCDFAKGVFNAYHFSLLLTSFNCVADPVLYCFVSETTHRDLARLRGACLAFLTCSRTGRAREAYPLGAPEASGKSGAQGEEPELLTKLHPAFQTPNSPGSGGFPTGRLA [V141F] | -1.01 | -1.82 | -0.992 | -1.65 | -1.12
MGNITADNSSMSCTIDHTIHQTLAPVVYVTVLVVGFPANCLSLYFGYLQIKARNELGVYLCNLTVADLFYICSLPFWLQYVLQHDNWSHGDLSCQVCGILLYENIYISVGFLCCISVDRYLAVAHPFRFHQFRTLKAAVGDSVVIWAKELLTSIYFLMHEEVIEDENQHRVCFEHYPIQAWQRAINYYRFLVGFLFPICLLLASYQGILRAVRRSHGTQKSRKDQIQRLVLSTVVIFLACFLPYHVLLLVRSVWEASCDFAKGVFNAYHFSLLLTSFNCVADPVLYCFVSETTHRDLARLRGACLAFLTCSRTGRAREAYPLGAPEASGKSGAQGEEPELLTKLHPAFQTPNSPGSGGFPTGRLA [V141D] | -1.42 | -0.939 | – | -0.668 | –
MGNITADNSSMSCTIDHTIHQTLAPVVYVTVLVVGFPANCLSLYFGYLQIKARNELGVYLCNLTVADLFYICSLPFWLQYVLQHDNWSHGDLSCQVCGILLYENIYISVGFLCCISVDRYLAVAHPFRFHQFRTLKAAVGGSVVIWAKELLTSIYFLMHEEVIEDENQHRVCFEHYPIQAWQRAINYYRFLVGFLFPICLLLASYQGILRAVRRSHGTQKSRKDQIQRLVLSTVVIFLACFLPYHVLLLVRSVWEASCDFAKGVFNAYHFSLLLTSFNCVADPVLYCFVSETTHRDLARLRGACLAFLTCSRTGRAREAYPLGAPEASGKSGAQGEEPELLTKLHPAFQTPNSPGSGGFPTGRLA [V141G] | -1.2 | -1.27 | -1.63 | – | -2.76

Scores whose standard error is large were omitted. Not listed are two conditions whose scores span a narrow range. Names with del lack the residues named; names with ins carry added residues between the positions named. For part of these data: How much ogerin was present is not stated here.
